Laboratory results as given in the supplement of paper PMC4466236.
Over roughly 33,000 sequences, “E-score (dimensionless, -0.5 to 0.5)” has its median near -0.058; the highest 2% begin near 0.35. This is one part of the list.

Test system: MvaT
Assay: PBM 8-mer E-score (mean of HK and ME arrays) (E-score (dimensionless, -0.5 to 0.5)); higher = stronger relative binding preference; most listed sequences are background and not binding sites
Method in brief: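 Reported values are rank-based E-scores, taken as the mean of two universal arrays and parsed with a custom script. Each 8-mer score falls between -0.5 and 0.5. The arrays, ME and HK, were double-stranded 60-mers with a constant 25-mer primer region and a variable 35-mer region covering all 8-mers. They were probed, by an earlier protocol, with full-length P. aeruginosa MvaT carrying an N-terminal glutathione S-transferase fusion.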

| Sequence | PBM 8-mer E-score |
| --- | --- |
| GTGCACCA | -0.137 |
| ATGGTCTC | -0.117 |
| ATCGAGCA | -0.175 |
| GGAGCCAC | -0.325 |
| ACTATTAT | 0.425 |
| ACTGGTTC | -0.122 |
| CCGCTGCG | -0.342 |
| CGCAGGCA | -0.137 |
| ATACGTAA | 0.223 |
| CCAACCAG | -0.21 |
| CAAATGGG | -0.111 |
| CACGCCGA | -0.0648 |
| GGGCACCA | -0.15 |
| CGGTCGCA | -0.119 |
| GTTCCACA | -0.0268 |
| CCGACACG | -0.209 |
| ATGGGTGA | -0.0345 |
| CTCTCTAC | -0.0519 |
| CCGGCGAA | -0.244 |
| CGGTCCCA | -0.0584 |
| AATCCGGG | -0.0785 |
| ACCCTGTC | -0.211 |
| AGTAAGTA | 0.273 |
| CGGCTACA | -0.125 |

| Sequence | PBM 8-mer E-score |
| --- | --- |
| GCTTTTCA | 0.0405 |
| AGGCACTC | -0.205 |
| CTCTCCCC | -0.109 |
| CGTCACGA | -0.187 |
| GTCACGTA | -0.086 |
| CTCGCGAG | -0.156 |
| AATGTTGT | 0.204 |
| AATAGATA | 0.228 |
| ATTCTTAG | 0.213 |
| ACAAACTA | 0.337 |
| GGCATCTA | -0.0751 |
| GGACGTCA | -0.268 |
| AATTCTCG | 0.0899 |
| CCCCCGTC | -0.241 |
| ACACCCTG | -0.0696 |
| GGCATGAA | 0.02 |
| GATTAACC | 0.0145 |
| AATGCAAA | 0.15 |
| AATGTAAT | 0.365 |
| AGAACGCC | -0.0907 |
| CCGCGTCC | -0.275 |
| TCTGGCAA | 0.0132 |
| TATACCAA | 0.246 |
| AGTTCTCA | -0.0217 |

| Sequence | PBM 8-mer E-score |
| --- | --- |
| CGGCGAAG | -0.222 |
| GTATTGAA | 0.23 |
| AAAAAATA | 0.331 |
| AGGTTATG | 0.101 |
| CGCGCGTA | -0.0215 |
| AACAAATC | 0.123 |
| TGTCTCAA | 0.166 |
| GTCTACCA | -0.0623 |
| GCTATCAA | 0.0148 |
| GAAGCTAA | -0.139 |
| AGCTCGAT | -0.146 |
| GATCTGGA | -0.109 |
| ACAGTATA | 0.265 |
| GCTACTCC | -0.197 |
| CTGTAAAA | 0.125 |
| GGAATCCA | -0.0837 |
| ACGATTTA | 0.169 |
| ACGTATGA | -0.1 |
| GGTAACGA | 0.0405 |
| CGTTCCCC | -0.106 |
| TGAATGCA | 0.0146 |
| CTACGGCC | -0.193 |
| CGGGGCAC | -0.155 |
| CCGGAATC | -0.00886 |

| Sequence | PBM 8-mer E-score |
| --- | --- |
| ACGAGACT | 0.0154 |
| CTAGCAAA | 0.059 |
| AAGGAGAT | -0.0816 |
| AAGCCACT | -0.228 |
| ACCCCTCC | -0.316 |
| AAGCAGAA | 0.113 |
| AATTGGGC | 0.165 |
| CCTAGTGC | -0.184 |
| ACCCTACA | -0.122 |
| CCGCAGGC | -0.268 |
| CATTCGAC | -0.083 |
| AACGTCTG | -0.16 |
| AGACAGTA | 0.0869 |
| AGGGGTAG | -0.2 |
| GATTTTCA | -0.0348 |
| GAAAGCTA | -0.124 |
| TCCACAAA | 0.0967 |
| ACTCAACT | -0.037 |
| AATCCTAA | 0.154 |
| AATATCAT | 0.294 |
| TGCGACAA | 0.0724 |
| GAAGAAGC | -0.159 |
